The record followed here is ChEMBL document CHEMBL1201862, “PubChem BioAssay data set” (2004).

SMILES strings stand for the structures.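 Exposure lasted 48 hours, with cells grown in 96-well plates and compounds tested at five concentrations. Here, GI50 denotes the concentration required for 50% inhibition of growth.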 Active and inactive are the calls of the source. Rule as the data show it: active = GI50 up to about 1.1 µM and inactive = higher.

In the assay the test system is NCI-H322M. Description: growth of human tumour cells (NCI), 48 h.
On to `Nc1cc(S(N)(=O)=O)ccc1SSc1ccc(S(N)(=O)=O)cc1N`, for which the GI50 is inactive: > 100 µM.

With `O=C(O)CSCC(=O)c1ccccc1`, the GI50 is inactive: > 100 µM.

On to `O=C(c1ccccc1)c1c(C(F)(F)F)[n+]([O-])c2cc(Cl)c(Cl)cc2[n+]1[O-]`, for which the GI50 is inactive: 4.75 µM.

Turning to `O=C1C(CN2CCCC2)CCCC1CN1CCCC1` (stereo not given), the GI50 is inactive: 17.4 µM.

As for `CCc1ccccc1NC(=O)C(=O)C(C(=O)c1ccc(OC)cc1)c1ccc(OC)cc1` (stereo not given), the GI50 is inactive: > 100 µM.

Consider `CCc1n[nH]c(=O)n1/N=C/c1c(O)ccc2ccccc12`, for which the GI50 was inactive: > 100 µM.

For `CC12CCCCC1=[N+]([O-])C(C)(C)N2O` (stereo not given), the GI50 is inactive: > 100 µM.

Consider `O=C1Nc2c(Cl)cc(Cl)cc2/C1=N/NC(=O)c1ccncc1`, for which the GI50 is inactive: 58.1 µM.

For the compound `N#CCN1C(=O)c2cc([N+](=O)[O-])cc3cc([N+](=O)[O-])cc(c23)C1=O`, the GI50 was inactive: 21.5 µM.

`CCOC(=O)/C(C(=S)NCc1ccccc1)=C(/N)N1CCCC1`: the GI50 was inactive: > 100 µM.

Regarding `CC(O)c1ccc(C(O)/C(=N\NC(=O)c2ccncc2)c2nc3ccc([N+](=O)[O-])cc3nc2O)cc1` (stereo not given), the GI50 is inactive: 95.3 µM.

For the compound `O=C1Nc2ccc(Br)cc2/C1=N/N1C(=O)C(=O)N(C2CCCCC2)C1=S`, the GI50 was inactive: 6.76 µM.

Take `O=C1C[C@@H]2[C@@H](CCC23CCCC3)N1`: the GI50 is inactive: > 100 µM.

On to `CC1(C)OC(CP(c2ccccc2)c2ccccc2)C(CP(c2ccccc2)c2ccccc2)O1` (stereo not given), for which the GI50 was inactive: 1.44 µM.

Regarding `Cc1nc2c(Br)cc(Br)cc2c(=O)n1-c1ccccc1N`, the GI50 was inactive: > 100 µM.

For the compound `COc1ccc(CCn2ccc(C)n2)c(OC)c1`, the GI50 is inactive: > 100 µM.

With `Cc1cc(CNC(=O)OCc2ccccc2)c(C)c2c1Oc1ccccc1O2`, the GI50 was inactive: > 100 µM.

For `COC(=O)/C=C/c1ccc(OP(=O)(O)O)c(OC)c1`, the GI50 is inactive: > 100 µM.

In the case of `N=C(N)NS(=O)(=O)c1ccc(NC(=O)c2cccc3c(O)c4ccccc4nc23)cc1`, the GI50 was inactive: > 100 µM.

Consider `O=C(Cn1c2c(c3ccccc31)CCCC2)N1CCCC1`, for which the GI50 was inactive: > 100 µM.

With `O=C(O)C1=C(C(=O)Nc2ccccc2)C2C=CC1C2` (stereo not given), the GI50 is inactive: > 100 µM.

Turning to `CCCCCCCCCC1(N=[N+]=[N-])C(=O)c2ccccc2N(C)C1=O` (stereo not given), the GI50 is inactive: > 100 µM.

With `N=C(N)NCCCC(Nc1c2ccccc2nc2ccccc12)C(=O)O` (stereo not given), the GI50 was inactive: > 100 µM.

For `O=C1CCC2(c3ccccc3)Nc3ccncc3N12` (stereo not given), the GI50 is inactive: > 10 µM.

In the case of `CC(=O)Nc1nc(Cl)cc(NCC2(CO)CCC2)n1`, the GI50 is inactive: > 100 µM.

Regarding `CCN(CC)CCN1C(=O)c2c(c(-c3ccccc3)c3ccccc3c2-c2ccccc2)C1=O`, the GI50 is inactive: > 100 µM.

Regarding `Oc1cccc2c1NC1=C(CCC/C1=C\c1ccccc1)C2`, the GI50 is inactive: > 100 µM.

As to `COC(=O)CCC1(C)C2CCC1(C)/C(=N/O)C2` (stereo not given), the GI50 is inactive: > 100 µM.

For `CSc1ccc(Cc2cc(C(C)(C)C)cc(C(C)(C)C)c2O)cc1`, the GI50 is inactive: 18.1 µM.

In the case of `CCC1CCC2c3c([nH]c4ccc(C)cc34)C3C(=O)N(N(C)C)C(=O)C3C2C1` (stereo not given), the GI50 was inactive: 48.1 µM.

In the case of `S=C1CC(c2ccc(Cl)cc2)Sc2ccccc2N1` (stereo not given), the GI50 is inactive: 42.5 µM.

Regarding `O=C1CN(c2ccccc2)C(=O)C1C(=O)Nc1ccc(Cl)c(Cl)c1` (stereo not given), the GI50 was inactive: 1.55 µM.

For `O=c1ccn(-c2ccccn2)c(=O)n1-c1ccccn1`, the GI50 is inactive: > 100 µM.

Turning to `COc1ccccc1/C=C/C(=O)c1sc(-c2cccnc2)nc1C`, the GI50 is inactive: > 100 µM.

For `Cc1ccc(S(=O)(=O)Nn2c(O)c(C#N)c(-c3ccc(N(C)C)cc3)c(C#N)c2=O)cc1`, the GI50 was inactive: > 50 µM.

Turning to `C/C(=N/OCCC(=O)O)C1CC1`, the GI50 was inactive: > 100 µM.

As for `[O-][n+]1c2ccccc2[n+]([O-])c2ccccc21`, the GI50 is inactive: 18.6 µM.

In the case of `CCN(CCCl)c1cc(CN(C)C)cc(NC(=O)c2ccc(C(=O)Nc3cccc(CN(C)C)c3)cc2)c1`, the GI50 was active: 0.771 µM.

As for `COc1cc(/C=N\N(C)C)cc(/C=N/N(C)C)c1O`, the GI50 was inactive: 26.8 µM.

Turning to `COc1ccc(-c2cc(-c3ccccc3)n(C3OCC(OC(C)=O)C(OC(C)=O)C3OC(C)=O)c(=S)c2C#N)cc1` (stereo not given), the GI50 was inactive: > 100 µM.

For the compound `CCCCSCC(NC(=O)/C=C/c1c(C)[nH]c(=O)[nH]c1=O)C(=O)OC` (stereo not given), the GI50 was inactive: 31.1 µM.

Take `CC(=O)OCC(OC(C)=O)C(OC(C)=O)C(OC(C)=O)C(=O)CNn1c(-c2ccccc2)nc2ccc(Br)cc2c1=O` (stereo not given): the GI50 was inactive: > 100 µM.

On to `CS(=O)(=O)Nc1ccc(NCc2c[nH]c3ccc4ncccc4c23)cc1`, for which the GI50 is inactive: 63.5 µM.

In the case of `CCCC(O)c1cn(C(NC(=O)c2ccccc2)P(=O)(OCC)OCC)nn1` (stereo not given), the GI50 is inactive: > 100 µM.

As for `O=C(OCN1C(=O)C2C3C=CC(C2C1=O)C1C2C(=O)N(COC(=O)C4CCCN4)C(=O)C2C31)C1CCCN1` (stereo not given), the GI50 is inactive: > 100 µM.

Take `COc1ccc(Cc2c3cc(O)c([O-])cc3cc[n+]2C)cc1`: the GI50 is inactive: 21 µM.

Turning to `Cc1cc2c(c3c1c1ccccc1n3C)C(=O)C=CC2=O`, the GI50 was inactive: 20.5 µM.

Consider `NC(=S)N/N=C1/C(=O)N(c2ccccc2)C(=O)C1C(=O)Nc1ccccc1` (stereo not given), for which the GI50 was inactive: > 100 µM.

Consider `FC1(F)SC2CCCCCCCCCCC2C1(F)F` (stereo not given), for which the GI50 was inactive: > 100 µM.

With `COC1=C2CC(C)CC(OC)C(O)C(C)/C=C(\C)C(OC(N)=O)C(OC)/C=C\C=C(/C)C(=O)NC(=C(/C=N/C(C)(C)C)C1=O)C2=O` (stereo not given), the GI50 was inactive: 6.05 µM.

As for `O=C(NNc1nc(-c2ccccc2)cs1)Nc1ccccc1`, the GI50 is inactive: 25 µM.

`Cc1ccccc1C(=O)Oc1ccc(Oc2ccccc2)cc1`: the GI50 was inactive: > 100 µM.

As to `Cc1ccc(S(=O)(=O)C(C#N)c2nc3ccccc3nc2-n2ccnc2)cc1` (stereo not given), the GI50 was inactive: > 100 µM.

`COC1CC(O[C@H]2CC[C@@]3(C)[C@@H](CC[C@]4(O)[C@@H]3CC[C@]3(C)[C@@H](C(C)=O)[C@H](OC(=O)CC(C)C)[C@@H](OC(=O)c5ccccc5)[C@@]34O)C2)OC(C)C1OC1CC(OC)C(OC2OC(C)C(O)C(OC)C2O)C(C)O1` (stereo not given in full): the GI50 was inactive: 10.9 µM.

On to `c1ccc2c(c1)ncn2C1CCCCO1` (stereo not given), for which the GI50 is inactive: > 100 µM.

On to `CCCCCCCCCCCCCCCCCc1nnc(N)o1`, for which the GI50 is inactive: > 100 µM.

Consider `Cc1cc(C)c(C(=O)/C(=C/c2ccccc2)c2ccccc2)c(C)c1`, for which the GI50 was inactive: > 100 µM.

Turning to `CS(=O)(=O)NC12CCC(c3ccccc31)c1ccccc12`, the GI50 is inactive: > 100 µM.

Turning to `CCOC(=O)C1OC(=O)CC1C1(C(=O)OCC)C=CC(=O)O1` (stereo not given), the GI50 was inactive: > 100 µM.

Turning to `Cc1cc(=O)n(-c2ccccc2)c(=O)o1`, the GI50 is inactive: > 100 µM.

In the case of `COc1ccc(Cn2nc(OCc3ccccc3)c3cc([N+](=O)[O-])ccc32)cc1`, the GI50 is inactive: > 100 µM.

Consider `C/C(=N\NC(=S)NCCCCNC(=S)N/N=C(\C)c1ccccn1)c1ccccc1`, for which the GI50 is active: 1.08 µM.

With `COc1cnnc2c(C)c(-c3ccccc3)nn12`, the GI50 is inactive: > 75.5 µM.

`COCCN(CCNC(=O)c1cccc2c(N)c3cccc(C)c3nc12)CCOC`: the GI50 was active: 0.787 µM.

`C#CC1/C(=C\C(=O)OC)CCCC1O` (stereo not given): the GI50 is inactive: > 100 µM.

With `CCN(CC)CCCCC1CCN(CC(=O)N2CC(C)C(=O)Nc3ccccc32)CC1` (stereo not given), the GI50 was inactive: > 100 µM.

In the case of `CN(C)c1snc2c1c(=O)n(C)c(=O)n2C`, the GI50 was inactive: > 100 µM.

As for `COc1cc(/C=C/C(=O)CC(=O)/C=C/c2cc(OC)c(O)c(OC)c2)cc(OC)c1O`, the GI50 was inactive: 8.55 µM.

Consider `Cc1ccnc(NC(=S)Nc2ccc([N+](=O)[O-])cc2)c1`, for which the GI50 is inactive: > 100 µM.

`O=C(CSCC(=O)N/N=C\c1ccc(F)cc1F)N/N=C\c1ccc(F)cc1F`: the GI50 was inactive: > 100 µM.

On to `Cc1ccc(NC(=O)CC2C(=O)Nc3ccccc3[S+]2[O-])c(C)c1` (stereo not given), for which the GI50 was inactive: 29.5 µM.

As for `O=C(/C=C\Nc1ccccc1O)C(Cl)(Cl)Cl`, the GI50 was inactive: 68.9 µM.

For the compound `COc1ccc(C(SCCO)(c2ccccc2)c2ccccc2)cc1`, the GI50 was inactive: 12.4 µM.

In the case of `C/C(=N\NC(N)=S)c1ccc(C)cc1C`, the GI50 is inactive: > 100 µM.

Turning to `Cc1ccc(-c2nc3cc(Cl)ccc3[nH]2)cc1`, the GI50 was inactive: > 100 µM.

As to `Cc1cccc(CP(Cc2cccc(C)c2)CC2(Cp3c4ccccc4c4ccccc43)COC2)c1`, the GI50 is inactive: > 100 µM.

Consider `CCOC(=O)N1N=C(/C(C)=N/OC)C(C)[S+]1[O-]` (stereo not given), for which the GI50 is inactive: > 100 µM.

In the case of `CCCCCc1c2nc(c(CCCCC)c3ccc([nH]3)c(CCCCC)c3nc(c(CCCCC)c4ccc1[nH]4)C=C3)C=C2`, the GI50 is inactive: > 100 µM.

With `CC(C)(C)C(=O)CP(=O)(O)O`, the GI50 was inactive: > 100 µM.

Turning to `O=S(O)CCCCCSSSCCCCCS(=O)O`, the GI50 is inactive: > 100 µM.

For the compound `CC(=O)OC(C)(C)CCC(=O)[C@](C)(O)[C@H]1[C@H](O)C[C@@]2(C)[C@@H]3CCc4c(cc(OC5OC(CO)C(O)C(O)C5O)c(O)c4C)C3(C)C(=O)C[C@]12C` (stereo not given in full), the GI50 is inactive: > 100 µM.

Regarding `CCCCCCCCCCCCSC(=S)c1c(C)[nH]n(-c2ccccc2)c1=O`, the GI50 is inactive: 10.5 µM.

As for `O=C1Cc2c([nH]c3c(Br)cccc23)-c2ccccc2N1`, the GI50 was inactive: > 100 µM.

For `O=c1cc(-c2ccccc2)oc2ccc(-c3ccc4oc(-c5ccccc5)cc(=O)c4c3)cc12`, the GI50 is inactive: 23.8 µM.

For `COc1cccc2cc(C(=O)O)c(=O)oc12`, the GI50 was inactive: > 100 µM.
